In PubChem BioAssay AID1030 (National Center for Advancing Translational Sciences (NCATS), 2008):
Screen size: about 220,000 compounds; about 16,000 (7.3%) were called active. The shares of active, inactive and inconclusive entries below differ from those in the screen. The call rests on the fitted dose curve; in most records, active means well fitted inhibition curve with a large enough effect (not every such curve was filed as active); inconclusive means small, poorly fitted or top-dose-only effect, or another doubt; inactive means no such curve, though single readings can be large or run the other way. No potency is given beside an inconclusive call; the fits are too rough.
Potency means the concentration at half of the fitted maximal effect; tags describe the fitted curve by direction and shape.
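Wherever activity, negative = inhibition is given: plate controls were no enzyme wells and a reference inhibitor.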

These molecules were tested against Aldehyde dehydrogenase 1A1 (Homo sapiens) (UniProt P00352) (assay: qHTS Assay for Inhibitors of Aldehyde Dehydrogenase 1 (ALDH1A1)). Conditions: Purified ALDH1A1, NADH fluorescence, propionaldehyde substrate; series mostly up to 75.3 µM.
Sequence of UniProt P00352 (P00352 whole entry, looked up): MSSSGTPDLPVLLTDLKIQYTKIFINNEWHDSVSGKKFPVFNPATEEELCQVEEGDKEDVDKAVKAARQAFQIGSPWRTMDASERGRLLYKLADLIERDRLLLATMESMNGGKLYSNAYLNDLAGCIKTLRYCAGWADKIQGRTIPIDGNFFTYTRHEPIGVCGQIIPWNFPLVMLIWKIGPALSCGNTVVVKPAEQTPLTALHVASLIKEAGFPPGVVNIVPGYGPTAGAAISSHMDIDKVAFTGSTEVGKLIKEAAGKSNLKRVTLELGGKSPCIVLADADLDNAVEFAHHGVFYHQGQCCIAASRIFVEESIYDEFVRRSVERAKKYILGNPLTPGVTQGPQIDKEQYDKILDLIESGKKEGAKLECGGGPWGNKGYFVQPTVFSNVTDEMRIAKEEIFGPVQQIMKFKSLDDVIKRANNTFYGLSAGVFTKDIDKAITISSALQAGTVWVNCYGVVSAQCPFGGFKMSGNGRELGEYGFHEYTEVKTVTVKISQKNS
`O=C(CSc1nccc(=O)[nH]1)Nc1ccc2c(c1)OCCO2` was tested, and the Potency was inconclusive [inhibitor, single point].
`Cn1c(N)c(Br)c(-c2ccc(F)cc2)c(C#N)c1=O` was tested, and the Potency was “inactive”.
In the case of `CC1(C)Cc2cccc(OCC(=O)N3CCN(S(=O)(=O)c4ccccc4)CC3)c2O1`, the Potency is reported as “inactive”.
For `COc1cccc(NC(=O)CN2C(=O)C3(OCCCO3)c3ccccc32)c1`, the Potency was inconclusive [inhibitor, single point].
`Nc1cnc(Nc2ccc(Br)cc2)nc1N` was tested, and the Potency was inconclusive [inhibitor, single point].
For `CCn1c(=O)n(CC)c2cc(S(=O)(=O)N3CCc4ccccc43)ccc21`, the Potency was inconclusive [inhibitor, partial curve].
With `COc1ccc(-c2cc(=O)oc3cc(OC(=O)C4CCCCC4)c(Cl)cc23)cc1` the Potency was inconclusive [inhibitor, single point].
In the case of `Cc1cccc(C(=O)N(Cc2nc3ccccc3c(=O)[nH]2)C2CCCCC2)c1`, the Potency is reported as inconclusive [inhibitor, partial curve, poor fit].
`CC(C)(C)c1ccc(-c2csc(NNC3=NCCCCC3)n2)cc1` was tested, and the Potency was “inactive”.
For `COc1ccc(N(C)S(=O)(=O)c2cccc3cccnc23)c(OC)c1`, the Potency was “inactive”.
`Cc1ccc(NC(=S)NCCSc2ccc(Cl)cc2)cc1` was tested, and the Potency was inconclusive [inhibitor, full curve].
In the case of `COc1ccc(CNCC(=O)Nc2cccc(S(N)(=O)=O)c2)cc1`, the Potency is reported as inconclusive [inhibitor, single point].
With `CCOC(=O)C(=O)Nc1nnc(CCc2ccccc2)s1` the Potency was “inactive”.
With `O=C(COc1cccc2c1CCN(Cc1ccccc1F)C2=O)N1CCCCC1` the Potency was inconclusive [inhibitor, single point].
`CC(C)(C)c1cnnn1-c1cccc([N+](=O)[O-])c1` was tested, and the Potency was “inactive”.
`Cc1c(C(=O)N2CCCCCC2)oc2ccccc12` was tested, and the Potency was “inactive”.
`CC(C)CC(=O)NC(=S)Nc1ccc(S(=O)(=O)N2CCCC2)cc1` was tested, and the Potency was inconclusive [inhibitor, single point].
For `O=C(Oc1oc(-c2ccco2)nc1C=Nc1ccccc1)c1ccoc1`, the Potency was inconclusive [inhibitor, full curve, poor fit].
`COc1ccc(C(C)=O)cc1CN1C(=O)NC(CC(C)C)C1=O` (configuration not stated) was tested, and the Potency was inconclusive [inhibitor, single point].
`O=C1CC(N2CCN(c3ccc(F)cc3)CC2)C(=O)N1Cc1cccs1` (configuration not stated) was tested, and the Potency was active: 14.1 µM.
For `N=c1sccn1CC(=O)Nc1cc(S(=O)(=O)N2CCCCC2)ccc1Cl`, the Potency was “inactive”.
For `CCC1CCCCN1CCCNC(=O)c1cn(CC(C)C)c(=O)c2cc(OC)c(OC)cc12` (configuration not stated), the Potency was inconclusive [inhibitor, single point].
For `COc1ccc(C)cc1S(=O)(=O)N(C)CC(=O)NC1CCCC1`, the Potency was inconclusive [inhibitor, partial curve].
In the case of `O=C(O)c1cc([N+](=O)[O-])ccc1NCCCc1ccccc1`, the Potency is reported as “inactive”.
In the case of `CCOC(=O)c1ccc(NC(=S)N(CCCN(CC)CC)Cc2ccco2)cc1`, the Potency is reported as “inactive”.
For `O=C(NN=C1C2CC3CC(C2)CC1C3)c1cc(Cl)ccc1O`, the Potency was inconclusive [inhibitor, single point].
`Cc1cc2c(nc1C)CCCCN2C[C@H](O)CN1CCCc2nc(-c3ccc(Br)cc3)ccc21` was tested, and the activity, negative = inhibition was inactive: -1.26% [at 13.5 µM].
In the case of `CC(CC(=O)O)Nc1ccccc1O` (configuration not stated), the Potency is reported as “inactive”.
With `CCN1CCN(c2cc(C)c3cc(NC(=O)c4cncc(Br)c4)ccc3n2)CC1` the Potency was inconclusive [inhibitor, single point].
In the case of `Cc1ccc(-n2nnc3c(=O)n(CC(=O)N4CCC(C)CC4)cnc32)cc1`, the Potency is reported as inconclusive [inhibitor, partial curve].
`O=C(O)c1cc(NCc2cc(O)ccc2O)ccc1O` was tested, and the Potency was inconclusive [inhibitor, partial curve].
With `COc1ccccc1-c1cc(NCc2ccccc2)ncn1` the Potency was inconclusive [inhibitor, single point].
`COc1ccc(-n2c(Cc3cccn3C)nnc2SCC(N)=O)cc1` was tested, and the Potency was “inactive”.
`Cc1ccn2c(c1)nc(=S)n2C(=O)c1ccccc1` was tested, and the Potency was inconclusive [inhibitor, single point].
For `CC(C)n1c(C(=O)OCC(=O)NCc2ccc3c(c2)OCO3)cc2occc21`, the Potency was inconclusive [inhibitor, single point].
In the case of `Cc1cc(NC(=O)Cn2nnc3sc4c(c3c2=O)CCC(C(C)(C)C)C4)no1` (configuration not stated), the Potency is reported as inconclusive [inhibitor, single point].
For `C=CCN1C(c2ccc(OCC)cc2)=CS/C1=C(\C#N)c1nnc2n1CCCCC2`, the Potency was active: 14.1 µM.
For `Cn1c(=O)n(Cc2ccc(F)cc2)c(=O)c2c1nc1n2CCCN1C1CCCCC1`, the Potency was inconclusive [inhibitor, single point].
In the case of `CCOC(=O)N1CCN(C(=O)CSc2nc3c(c(=O)n2-c2ccccc2OC)SCC3)CC1`, the Potency is reported as inconclusive [inhibitor, single point].
`Cc1ncc(CO)c(/C=N/NC(=S)Nc2cccc(Cl)c2)c1O` was tested, and the Potency was inconclusive [inhibitor, partial curve].
In the case of `COC(=O)CN1C(=S)N(c2ccc(OC)cc2)C(=O)/C1=C/c1ccc(N2CCOCC2)cc1`, the Potency is reported as inconclusive [inhibitor, single point].
With `CCC/C(O)=N\S(=O)(=O)c1ccc(N=NN(C)C)cc1` the Potency was “inactive”.
`c1ccc2sc(NN=C3CCCCCC3)nc2c1` was tested, and the Potency was inconclusive [inhibitor, single point].
In the case of `Cc1ccc(C)n1-n1c(C)nc2scc(-c3cccs3)c2c1=O`, the Potency is reported as “inactive”.
For `Cc1ccc(-c2csc3ncn(CC#N)c(=O)c23)cc1`, the Potency was inconclusive [inhibitor, partial curve].
In the case of `Cc1ccc2[nH]c(=O)c(CN(Cc3ccco3)C(=O)N3CCOCC3)cc2c1`, the Potency is reported as inconclusive [inhibitor, single point].
In the case of `COCCCn1c(SCC(=O)N2CCCCC2C)nnc1-c1ccco1` (configuration not stated), the Potency is reported as inconclusive [inhibitor, single point].
In the case of `COc1ccc(C2c3c(oc4ccc(Cl)cc4c3=O)C(=O)N2Cc2ccco2)cc1OC` (configuration not stated), the Potency is reported as inconclusive [inhibitor, single point].
In the case of `CCOC(=O)N1CCN(C(=O)C(C)(C)Oc2ccc(Cl)cc2)CC1`, the Potency is reported as inconclusive [inhibitor, single point].
For `c1coc(CN(Cc2ccco2)c2ncnc3c2oc2ccccc23)c1`, the Potency was inconclusive [inhibitor, single point].
For `COCCNc1ccc(S(=O)(=O)N2CCCC2)cn1`, the Potency was inconclusive [inhibitor, single point].
For `COc1cc(CC(=O)Nc2ccc(S(=O)(=O)N(C)C)cc2)cc(OC)c1OC`, the Potency was inconclusive [inhibitor, single point].
`O=C(Nc1cc(S(=O)(=O)N2CCOCC2)ccc1N1CCOCC1)c1cn2ccccc2n1` was tested, and the Potency was inconclusive [inhibitor, single point].
With `CCCCOc1ccc(/C(O)=C2/C(=O)C(=O)N(Cc3cccnc3)C2c2ccncc2)c(C)c1` (configuration not stated) the Potency was inconclusive [inhibitor, single point].
With `Cc1cccc(-c2nc(CN3CCCC(C(=O)NC4CCC(C)CC4)C3)c(C)o2)c1` (configuration not stated) the Potency was inconclusive [inhibitor, partial curve].
In the case of `CN(c1ccc(C(=O)N2CCCCC2)cc1)S(=O)(=O)c1ccccc1`, the Potency is reported as “inactive”.
With `Cc1c(Cl)c([N+](=O)[O-])nn1CCCC(=O)NC1CCCCC1` the Potency was “inactive”.
For `N#Cc1nc(-c2ccco2)oc1N1CCC(C(N)=O)CC1`, the Potency was inconclusive [inhibitor, partial curve].
`Brc1cc2c(cc1/C=N/Nc1nc(N3CCCC3)nc(N3CCOCC3)n1)OCO2` was tested, and the Potency was active: 14.1 µM.
In the case of `CCNc1ccc(S(=O)(=O)N(C)C)cc1NCC(=O)Nc1ccccc1Br`, the Potency is reported as active: 25.1 µM.
`COc1ccc(NC(=O)N2CCCC(c3nc(-c4ccc(F)cc4)no3)C2)cc1` (configuration not stated) was tested, and the Potency was “inactive”.
In the case of `O=C(Nc1ccc(Cl)cc1)C(c1ccccc1)N(CCO)CCO` (configuration not stated), the Potency is reported as inconclusive [inhibitor, single point].
With `O=C(COC(=O)Cc1cccc(C(F)(F)F)c1)Nc1ccc2c(c1)OCCO2` the Potency was “inactive”.
With `Cc1ccc(NC(=O)COC(=O)CN2C(=O)NC3(CCCC3)C2=O)cc1S(=O)(=O)N(C)C` the Potency was inconclusive [inhibitor, single point].
For `CC(=O)CSc1nsc(SCC(C)=O)c1C#N`, the Potency was active: 28.2 µM.
In the case of `Cc1cc(C)nc(SCCS(=O)(=O)Cc2ccccc2)n1`, the Potency is reported as inconclusive [inhibitor, single point].
In the case of `c1ccc(-c2ccc(-c3nc(-c4ccccn4)no3)cc2)cc1`, the Potency is reported as inconclusive [inhibitor, partial curve].
With `CC(C)(C)S(=O)(=O)/C(C#N)=C/c1sccc1C1OCCO1` the Potency was active: 7.94 µM.
`Cc1ccc(N2C(=O)C3C4C=CC(CNC(=S)N5CCN(c6ccccc6)CC5)(O4)C3C2=O)cc1` (configuration not stated) was tested, and the Potency was active: 0.631 µM.
With `O=[N+]([O-])c1nn(-c2ccc3c(c2)OCCO3)n(O)c1=NCc1ccccc1Cl` the Potency was inconclusive [inhibitor, single point].
With `CNC(=O)c1[nH]cnc1C(=O)Nc1cccc(OC)c1` the Potency was active: 28.2 µM.
`CCOC(=O)N1CCN(c2c(-c3ccccc3)c3cc(Cl)ccc3[nH]c2=O)CC1` was tested, and the Potency was “inactive”.
